Measurements published in PubChem BioAssay AID686978 (National Center for Advancing Translational Sciences (NCATS), 2013).
Several values for one entry are separate records, joined by “and”; a condition that tells them apart may be missing. Equal entries are not always repeated. Out of some 420,000 compounds screened, about 64,000 (15%) were called active. The shares of active, inactive and inconclusive entries below differ from those in the screen. Calls follow the shape of the dose curve; as a rule, active = well fitted inhibition curve with a large enough effect; inconclusive = small, poorly fitted or top-dose-only effect; inactive = flat fitted curve, though single readings scatter. Potencies of inconclusive entries are doubtful fits and often do not repeat.

experiment: qHTS for Inhibitors of human tyrosyl-DNA phosphodiesterase 1 (TDP1): qHTS in cells in absence of CPT; settings: DT40 Tdp1-/- hTDP1 cells, no CPT, ATP luminescence, 48 h; activity change, negative = growth inhibition: at 46.2 µM (top of the series) unless noted; also: nearly all actives have a fitted effect of over 55% in size
How it was run: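 Chicken DT40 Tdp1-/- cells complemented with human TDP1, screened without camptothecin (DMSO vehicle only), 400 cells/well. Compounds pin-transferred, cells incubated at 37 °C for at least 48 hr. Growth read as ATP-dependent luminescence (CellTiter-Glo, 30 min at RT).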
% is scaled to controls: 0 for no effect and ±100 for the full control effect; potency is read from the fitted curve at half-maximal effect; tags tell the direction and shape of the fitted curve.

| Compound | Potency | activity change, negative = growth inhibition |
| --- | --- | --- |
| Cc1cc(OCC(=O)Nc2ccc(CN3CCOCC3)cc2)ccc1Cl | inconclusive: 20.6 µM [inhibitor, single point] | – |
| O=C(CCNS(=O)(=O)c1ccc2ccccc2c1)NCCOc1ccccc1 | inconclusive: 20.6 µM [inhibitor, single point] | – |
| Cc1cc(C)cc(CN2CCOc3ccc(CN4CCC(O)(c5cccnc5)CC4)cc3C2)c1 | inconclusive: 20.6 µM [inhibitor, single point] | – |
| CN(C)c1ccc(-c2cc3ccccc3c(=O)o2)cc1 | – | inactive: -29.4% |
| Cc1ccc(C(C)(C)C)cc1S(=O)(=O)N1CCC(C(=O)N2CCN(c3ccc(O)cc3)CC2)CC1 | inconclusive: 18.4 µM [inhibitor, single point] | – |
| Cc1nc2cc(NC(=O)Nc3cccc(F)c3)ccc2n1C | inconclusive: 16.4 µM [inhibitor, single point] | – |
| CC1(Cc2ccccc2Cl)C(=O)Nc2ccc(OC(F)(F)F)cc21 (stereo not given) | inconclusive: 18.4 µM [inhibitor, single point] | – |
| COc1cc(CNCCc2c[nH]c3ccccc23)ccc1OCc1ccc(F)cc1 | active: 18.4 µM | – |
| Cc1ccc(S(=O)(=O)NCc2ccccc2)cc1C(=O)N(C)Cc1ccc(F)cc1 | inconclusive: 29.1 µM [inhibitor, single point] | – |
| Cc1ccc(-c2ccc(/C=N/N=C3/NC(=O)C(CC(=O)O)S3)o2)c([N+](=O)[O-])c1 (stereo not given) | – | inactive: 1.01% |
| COc1cc(OC)cc(-c2c(C#Cc3ccsc3)c3cc(-c4ccccc4OC)ccc3n2C)c1 | – | inactive: -28% |
| Cc1ccc(S(=O)(=O)N2CCN(c3ncnc4ccccc34)CC2)cc1 | active: 820 nM and active: 1.26 µM | – |
| CCC(CC)CN1CCC(CN2C(=S)NC[C@@H]2CC(C)C)CC1 | – | inactive: -18.8% |
| Cc1ccc(C)c(N2C(=O)CC(Cc3ccc(Br)cc3)C2=O)c1 (stereo not given) | inconclusive: 20.6 µM [inhibitor, single point] | – |
| O=C(COC(=O)CCc1c[nH]c2ccccc12)Nc1cc([N+](=O)[O-])ccc1Cl | – | inactive: 2.34% |
| COc1ccc(OC)c(NC(=O)CN(C)S(=O)(=O)c2ccc(C(=O)N3CCOCC3)s2)c1 | inconclusive: 16.4 µM [inhibitor, single point] | – |
| CC(C)(C)c1ccc(-c2nnc(SCC(=O)c3ccc4c(c3)OCCO4)o2)cc1 | inconclusive: 11.6 µM [inhibitor, partial curve, poor fit] | – |
| CCOc1cc(-c2nc3cc(C)ccn3c2NCC2CCCO2)ccc1O (stereo not given) | inconclusive: 13 µM [inhibitor, partial curve] | – |
| O=C(Cn1cnc2c(oc3ccccc32)c1=O)Nc1ccccc1C(F)(F)F | – | inactive: -3.63% |
| Oc1ccc(-c2nccs2)cc1 | – | inactive: -20.6% |
| O=C(c1cnn2c(C(F)F)cc(-c3ccccc3)nc12)N1CCN(Cc2ccc3c(c2)OCO3)CC1 | active: 25.9 µM | – |
| COc1ccc(NC(=O)N(C)C[C@@H]2OCc3cnnn3CCCC(=O)N([C@H](C)CO)C[C@H]2C)cc1 | inconclusive: 0.58 µM [inhibitor, partial curve, poor fit] | – |
| CN(C(=O)COC(=O)C1CCN(S(=O)(=O)c2ccc3c(c2)OCCO3)CC1)C1CCCCC1 | – | inactive: -18.6% |

| Compound | Potency | activity change, negative = growth inhibition |
| --- | --- | --- |
| O=C(C(c1ccccc1)c1ccccc1)N1CCN(Cc2ccncc2)CC1 | inconclusive: 9.2 µM [inhibitor, single point] | – |
| COc1ccc(C)cc1NC(=O)N(Cc1ccc(C)o1)C1CCN(C(C)=O)CC1 | inconclusive: 16.4 µM [inhibitor, partial curve] | – |
| CCCC[C@H]1COCCS(=O)(=O)N1Cc1ccc(F)cc1 | inactive and inconclusive: 17.8 µM [inhibitor, single point] | – |
| COC(=O)c1ccc(C2SCC(=O)N2Cc2ccccc2)cc1 (stereo not given) | inconclusive: 11.6 µM [inhibitor, partial curve, poor fit] | – |
| Cc1ccc(-c2nnc(Nc3cccc(Cl)c3)c3ccccc23)cc1S(=O)(=O)N1CCOCC1 | active: 4.11 µM | – |
| Cc1cc(C)c(C)c(OCCCCN2CCCCC2)c1 | – | inactive: -21.7% |
| c1ccc(-c2nc3ccccc3n2C(c2ccccc2)c2nc3ccccc3[nH]2)cc1 (stereo not given) | inconclusive: 16.4 µM [inhibitor, single point] | – |
| CN(c1ccccc1)S(=O)(=O)c1ccc(Cl)c(C(=O)Nc2ccccc2N2CCOCC2)c1 | active: 7.31 µM | – |
| COc1ccccc1C(=O)COC(=O)c1cccc(S(=O)(=O)N2CCCC2)c1 | inconclusive: 18.4 µM [inhibitor, single point] | – |
| Cc1ccc(S(=O)(=O)N(C)C)cc1NC(=O)COC(=O)C1COc2ccccc2O1 (stereo not given) | – | inactive: 0.485% |
| Cc1ccn(-c2cc(O)c(-n3ccc(C)n3)cc2O)n1 | inconclusive: 11.6 µM [inhibitor, single point] | – |
| Cc1cc(C)c(NC(=O)CSc2nc3ccccc3nc2N2CCCCC2)c(C)c1 | active: 14.6 µM | – |
| COC(=O)CN(C(=O)CSc1nnc(-c2cccc(OC)c2)o1)c1ccc(OC)cc1 | inconclusive: 16.4 µM [inhibitor, partial curve] | – |
| COCOc1cc(O)c(C(=O)/C=C/c2ccc(OCOC)c(OCOC)c2)c(OCOC)c1 | active: 23.1 µM | – |
| COC(=O)c1cc(CSc2nc3ccccc3[nH]2)oc1C | active: 23.1 µM | – |
| CC(Sc1n[nH]c(-c2cccs2)n1)C(=O)Nc1ccc(C(N)=O)cc1 (stereo not given) | – | inactive: 16.3% |
| Cn1c(-c2ccccc2)c(Sc2ccccc2)c2cc(-c3ccc4[nH]ccc4c3)ccc21 | – | inactive: -26.7% |
| O=C(CNc1cc(S(=O)(=O)N2CCOCC2)ccc1NCC1CCCO1)Nc1ccc(C(F)(F)F)cc1 (stereo not given) | inconclusive: 20.6 µM [inhibitor, single point] | – |
| COc1ccc(OCC(=O)Nc2cccc(-c3nc4ccccc4o3)c2)cc1 | – | inactive: -16.6% |
| CCC(c1nnc(SCC(=O)Nc2cc(S(C)(=O)=O)ccc2Cl)n1Cc1ccccc1)N(C)C (stereo not given) | – | inactive: -8.95% |
| COc1cccc(NC(=O)CN(C)C(=O)CCc2nc3sc4c(c3c(=O)[nH]2)CCCC4)c1 | – | inactive: -11.5% |
| CCC(Sc1ncccc1C(=O)Oc1cccc([N+](=O)[O-])c1)C(=O)Nc1ccccc1OC (stereo not given) | – | inactive: -30.1% |
